# Out of some 340,000 compounds screened, about 12,000 (3.5%) were called active. The inconclusive results got no clear call from the source; some entries with a clear call stand among them for comparison. The call rests on the fitted dose curve; in most records, active means well fitted inhibition curve with a large enough effect; inconclusive means small, poorly fitted or top-dose-only effect, or another doubt; inactive means no such curve, though single readings can be large or run the other way. Potencies of inconclusive entries are left out as doubtful fits.
# Test: qHTS Assay for Inhibitors of Hepatitis C Virus (HCV)
# Details: Huh7.5.1 HCVcc-Cre (HCVcc is cell-culture hepatitis C virus) infection, luciferase reporter, 44 h; activity change, negative = inhibition: at 41.8 µM (top of the series) unless noted
# Summary of the method: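 Whole-lifecycle infectious HCVcc-Cre system; cells 1,000/well, compound then virus (~0.5 moi) added 4 h after plating, 44 h culture. Luciferase read 15 sec following 15 min substrate incubation, room temp.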
# On the % scale 0 is the no-effect control and ±100 the full control effect; potency means the concentration at half of the fitted maximal effect; tags describe the fitted curve by direction and shape.
Compound,Potency,"activity change, negative = inhibition"
COc1ccccc1NS(=O)(=O)c1cc(NC(=O)CC(C)(C)C)ccc1N1CCOCC1,"inconclusive [inhibitor, single point]",–
CCN(Cc1ccccc1)C(=O)c1cc2c(=O)oc3ccc(C)cc3c2s1,"inconclusive [inhibitor, single point]",–
OCCN1CCN(CC(O)COC(c2ccc(F)cc2)c2ccc(F)cc2)CC1 (stereo not given),"inconclusive [inhibitor, partial curve]",–
N/C(=N\OC(=O)Cc1ccccc1)c1ccccn1,inactive,–
COc1ccc(C2/C=C\CC(NS(=O)(=O)c3ccc(C)cc3)CC(=O)N2Cc2ccccc2F)cc1 (stereo not given),"inconclusive [inhibitor, partial curve]",–
CC(C)OC(=O)c1cn(-c2ccccc2)nc1-c1ccc2c(c1)OCCO2,"inconclusive [inhibitor, single point]",–
COc1cccc2nc3c(C(=O)NCCN(C)C)cccc3cc12,"inconclusive [inhibitor, full curve]",–
CCOC(=O)c1c(-c2ccc(OC)cc2)csc1NC(=O)CNCc1ccco1,"inconclusive [inhibitor, single point]",–
COc1cc(N)c(Cl)cc1C(=O)OCC(=O)NC(=O)NCc1ccco1,"inconclusive [inhibitor, full curve, poor fit]",–
COc1ccc2[nH]c(=O)c(CN(Cc3ccco3)Cc3nnnn3Cc3ccccc3)cc2c1,inactive,–
COc1cc(NC(=O)CCNS(=O)(=O)c2cc(Br)cnc2N)cc(OC)c1,inactive,–
S=C(NCc1ccco1)Nc1cc(-c2ccccc2)[nH]n1,"inconclusive [inhibitor, single point]",–
COc1ccc(N/C=C/C(=O)c2sc(-c3ccccc3)nc2C)cc1,active: 10 µM,–
CN(C)CC(C)(C)CNC(=O)C1CCN(CCCc2ccccc2)CC1,active: 12.6 µM,–
O=C(Nc1cc(C(F)(F)F)ccc1N1CCCCC1)c1ccc(Br)o1,active: 5.01 µM,–
CCn1cc(C(=O)N[C@H](C)c2ccccc2)c(=O)c2cc(F)c(N3CCN(C)CC3)cc21,"inconclusive [inhibitor, partial curve]",–
Cc1ccc(-c2nc(CN(C)Cc3cccc4cnccc34)c(C)o2)s1,"inconclusive [inhibitor, single point]",–
S=C(NCc1ccco1)Nc1ccc(Cl)cc1Cl,inactive,–
CN(Cc1ccccc1)C(=O)c1ccc(NC(=O)Cc2ccc(NC(=O)C3CCCN(C(=O)C4CCC4)C3)cc2)cc1 (stereo not given),"inconclusive [inhibitor, single point]",–
Cc1ccc(CN2CCN(/N=C\c3cccc([N+](=O)[O-])c3)CC2)cc1,inactive,–
COc1ccc(-c2nnc(SCC(=O)c3cccs3)o2)c(OC)c1,inactive,–
N#C/C(=N\Nc1ccc(Cl)cc1)C(=O)c1ccsc1,–,inconclusive: -74.1% [inhibitor]
O=C(CSc1nnc(Cc2cccs2)n1Cc1ccco1)Nc1ccc(Br)cc1,"inconclusive [inhibitor, full curve, poor fit]",–
CCn1nc(-c2cccs2)nc2c(=O)n(C)c(=O)nc1-2,active: 0.562 µM,–

Compound,Potency,"activity change, negative = inhibition"
CC1CCCCC1NC(=O)c1cccc(N2C(=O)C3C4C=CC(C4)C3C2=O)c1 (stereo not given),"inconclusive [inhibitor, partial curve]",–
c1ccc2c(CNC3CCCCC3)c[nH]c2c1,inactive,–
C=CCC1(CC=C)CCCN1Cc1nc(COc2ccccc2)no1,"inconclusive [inhibitor, single point]",–
O=C(C1CCN(S(=O)(=O)c2cccnc2)CC1)N1CCCCC1,inactive,–
S=c1nc(Cc2ccc(Cl)cc2)[nH]c2ccccc12,inactive,–
C=C1CC[C@@]23CC[C@]4(C)[C@@](OC2=O)([C@@H]3C1)[C@H]1O[C@H]1C1[C@@]2(C)CC[C@H](O)C(C)(C)C2CC[C@]14C (stereo not given in full),inactive,–
O=C(CCc1ccccc1)Nc1cc2c3c(c1)CCC(=O)N3CCC2,"inconclusive [inhibitor, single point]",–
CCOC(=O)N1CCN(C(=O)Nc2sc3nc4n(c(=O)c3c2C)CCC(C)CC4)CC1 (stereo not given),"inconclusive [inhibitor, single point]",–
Cc1occc1-c1nc(-c2ccncc2)no1,inactive,–
Cc1c(NC(=O)c2cc(-n3cnnc3)ccc2Cl)cccc1-c1nc2ccccc2o1,"inconclusive [inhibitor, partial curve]",–
Cc1ccc(C)c(S(=O)(=O)N2CCN(C(=O)CCc3nc4ccccc4c(=O)[nH]3)CC2)c1,"inconclusive [inhibitor, single point]",–
COc1cc(OC)c2c(-c3ccccc3)cc(=O)oc2c1C(CCN1CCN(c2ccccc2)CC1)c1ccc(N(C)C)cc1 (stereo not given),"inconclusive [inhibitor, full curve, poor fit]",–
CC(C)CNS(=O)(=O)c1ccc(CCC(=O)N2CCN(c3ccccc3)CC2)cc1,"inconclusive [inhibitor, single point]",–
COc1ccc(Cn2c(O)c(C=Nc3ccc(C)cc3)c3ccccc3c2=O)cc1,inactive,–
Cc1cc(C)cc(NC(=S)N2CCN(S(C)(=O)=O)CC2)c1,inactive,–
O=C(NC(Cc1c[nH]c2ccccc12)C(=O)N/N=C/c1cccnc1)c1cccs1 (stereo not given),inactive,–
CCCCCC(=O)Nc1cc(S(=O)(=O)O)cc2cc(S(=O)(=O)O)cc(O)c12,inactive,–
Cc1ccc(C(=O)Nc2ccccc2N2CCCCC2)cc1S(=O)(=O)N1CCOCC1,"inconclusive [inhibitor, single point]",–
CCOc1cc(CNc2ccc3c(c2)OCCO3)cc(Br)c1OCC(N)=O,inactive,–
COc1ccc(COc2cc(-c3cccc(OC)c3)nc3ccc(NC(=O)c4ccc(C)cc4)cc23)cc1,"inconclusive [inhibitor, partial curve]",–
CC(NC(=O)CN1C(=O)NC(c2ccccc2)(c2ccccc2)C1=O)c1cccs1 (stereo not given),"inconclusive [inhibitor, partial curve]",–
COc1ccc(OC)c2sc(N3CCN(C(=O)c4ccc([N+](=O)[O-])s4)CC3)nc12,"inconclusive [inhibitor, partial curve]",–
Cc1c(C=O)c2ccccc2n1CCOc1ccccc1,"inconclusive [inhibitor, single point]",–
CCOC(=O)N1CCC2(CC1)C(C#N)=C(N)Oc1c2sc2nc(C)cc(C)c12,"inconclusive [inhibitor, partial curve]",–

Compound,Potency,"activity change, negative = inhibition"
COc1cc(NC(=O)CNC(=O)Cn2ccc3ccccc3c2=O)cc(OC)c1OC,inactive,–
Cc1nc(Cc2nnc(SC(C)C(=O)Nc3cccc(C#N)c3)o2)cs1 (stereo not given),–,inactive: 0.73% [at 8.37 µM]
CC1(C)CC(=O)c2c(noc2-c2ccccc2)C1,inactive,–
C/C(=N/NC(=O)CN(c1ccccc1)S(=O)(=O)c1ccccc1)c1ccccc1O,"inconclusive [inhibitor, single point]",–
Cc1nn(-c2ccccc2)c(C)c1/C=N/NC(=O)c1cnccn1,inactive,–
COc1cccc(-c2onc3ccc(C(C)=O)cc23)c1,"inconclusive [inhibitor, single point]",–
COc1ccc(Cl)cc1N1C(=O)/C(=C/c2sccc2C)N=C1SCC(=O)NC1CC1,–,inconclusive: -56.6% [inhibitor]
CCOc1cc(O)c(-c2[nH]ncc2-c2nc(C)cs2)cc1CC,"inconclusive [inhibitor, single point]",–
O=C(COc1coc(CN2CCN(c3ccccc3F)CC2)cc1=O)NC1CCCCC1,"inconclusive [inhibitor, single point]",–
CC(C)(C)n1ncc(Oc2ccccc2[N+](=O)[O-])c(Cl)c1=O,"inconclusive [inhibitor, single point]",–
NC(=O)c1ccsc1NC(=O)CCS(=O)(=O)c1ccc(F)cc1,"inconclusive [inhibitor, single point]",–
O=C(c1cccs1)N1CCN(C(=O)c2cccs2)C1=S,"inconclusive [inhibitor, single point]",–
COc1ccc(C(=O)NC(=S)Nc2ccc3oc(=O)ccc3c2)cc1[N+](=O)[O-],inactive,–
Cc1nn(-c2ccccc2)c(N)c1Sc1ccccc1[N+](=O)[O-],"inconclusive [inhibitor, single point]",–
O=C(NCC1CCCO1)C1CCN(C2CCN(CCCC3CCCC3)CC2)CC1 (stereo not given),active: 10 µM,–
COc1cc(Br)cc(C(c2c(C)n(C)n(-c3ccccc3)c2=O)c2c(C)n(C)n(-c3ccccc3)c2=O)c1O,–,inconclusive: -37.5% [inhibitor]
CCOc1ccc(Cn2nnc(-c3ccc(S(C)(=O)=O)cc3)n2)cc1OCC,inactive,–
O=C(CN1c2cccc3cccc(c23)S1(=O)=O)NCCc1ccc(F)cc1,"inconclusive [inhibitor, single point]",–
CCn1c(SCC(=O)Nc2sc3c(c2C#N)CCCC3)nnc1-c1ccncc1,"inconclusive [inhibitor, single point]",–
CCCc1cc(=O)[nH]c(Nc2ccc(Cl)cc2)n1,"inconclusive [inhibitor, single point]",–
O=C(NCC(=O)N(Cc1ccccc1)C(C(=O)NCC1CCCO1)c1ccccc1)c1ccco1 (stereo not given),inactive,–
CCN(CC)CCNC(=O)c1c(C)oc2cc(Br)c(OC)cc12,"inconclusive [inhibitor, single point]",–

# — PubChem BioAssay AID651820 (National Center for Advancing Translational Sciences (NCATS), 2012)
